Laboratory results taken from ChEMBL document CHEMBL1201862, “PubChem BioAssay data set” (2004).

Each compound was assayed on NCI-H322M (assay: DTP human tumour cell line panel, 48 h).
`O=C(N/N=C/c1cc(Br)cc(Br)c1O)c1ccccc1O` was tested, and the GI50 was inactive: 1.49 µM.
With `COc1cc(C2c3cc4c(c(O)c3C(=O)C3CCC(=O)N32)OCO4)cc(OC)c1OC` (stereo unspecified) the GI50 was inactive: > 100 µM.
With `Cc1nc(C)c(N2CCN(Cc3ccccc3)CC2)c(O)n1` the GI50 was inactive: > 100 µM.
For `CC1=CC(=O)C(C)(C2=NC(C)(C)CO2)c2ccccc21` (stereo unspecified), the GI50 was inactive: > 100 µM.
For `N#CCCCCC12C3C(=O)N(c4ccccc4)C(=O)C3ON1O[C@@H]1C(=O)N(c3ccccc3)C(=O)[C@@H]12` (stereo partly specified), the GI50 was inactive: > 100 µM.
With `Nc1nc(Cl)c2ncn(Cc3ccccc3CCl)c2n1` the GI50 was inactive: 12.4 µM.
For `COC1CCCCN1C(=O)c1ccccc1` (stereo unspecified), the GI50 was inactive: > 25.3 µM.
With `O=C(O/N=C1/CCC/C1=C\c1ccccc1)c1ccc(Cl)cc1` the GI50 was inactive: > 77.6 µM.
With `N#Cc1nc(C(=O)c2ccccc2)oc1N` the GI50 was inactive: > 100 µM.
With `Clc1c(C(Cl)(Cl)Cl)nsc1N1CCCCC1` the GI50 was inactive: 32.8 µM.
For `CCOC(=O)CN(Cn1cncn1)Cn1cncn1`, the GI50 was inactive: 55.1 µM.
In the case of `O=C1C2CC(Cl)C(SSC3CC4C(=O)N(SC(Cl)(Cl)C(Cl)Cl)C(=O)C4CC3Cl)CC2C(=O)N1SC(Cl)(Cl)C(Cl)Cl` (stereo unspecified), the GI50 is reported as active: 0.91 µM.
In the case of `CC(=O)O[C@H]1CC[C@@]2(C)C(=CC[C@H]3C(CC#N)[C@@](C)(C#N)CCC32)C1` (stereo partly specified), the GI50 is reported as inactive: > 100 µM.
In the case of `Cc1ccc(-c2nc3ccccc3c(=O)n2NCC2(O)OCC(O)C(O)C2O)cc1` (stereo unspecified), the GI50 is reported as inactive: > 100 µM.
With `CN(C)c1ccc2c(c1)C(=O)N(OS(=O)(=O)c1ccc([N+](=O)[O-])cc1)C2=O` the GI50 was inactive: > 100 µM.
For `CSC(SC)=C1CC(=O)Nc2ccccc2C1=O`, the GI50 was inactive: > 100 µM.
`NNC(=S)N/N=C(\c1nc2ccc(Cl)cc2nc1O)C(O)c1ccc(Cl)cc1Cl` (stereo unspecified) was tested, and the GI50 was inactive: > 100 µM.
`CCSc1c(C)c2c(n(Cc3ccc(OC)cc3)c1=O)Cc1ccccc1C2` was tested, and the GI50 was inactive: 21.3 µM.
For `CC(C)CSCC1OC(n2cnc3c(N)nccc32)C(O)C1O` (stereo unspecified), the GI50 was inactive: > 100 µM.
With `N#C/C(=C1/Sc2c(nc[nH]c2=O)N1c1ccccc1)c1nc2ccccc2[nH]1` the GI50 was inactive: > 100 µM.
For `CN(C)CCn1c(=O)c2ccc3c4c(nn3CCN(C)C)c3cc([N+](=O)[O-])ccc3n(c1=O)c24`, the GI50 was active: < 0.0194 µM.
With `CCOC(=O)CSc1nnc(C(Sc2nc(-c3ccccc3)c(-c3ccccc3)[nH]2)C(C)C)n1-c1ccccc1` (stereo unspecified) the GI50 was inactive: 15.3 µM.
In the case of `Nc1nc(Cl)c(N)c(NC23CC4CC(CC(C4)C2)C3)n1`, the GI50 is reported as inactive: 2.13 µM.
In the case of `COc1cc(OC)c(/C=N/N=C(\N)NO)c(OC)c1`, the GI50 is reported as inactive: > 100 µM.
With `CC(C)(C)n1c(=O)[nH]c(=O)n1C(C)(C)C` the GI50 was inactive: > 100 µM.
With `CCCSc1ccc2[nH]c(N3C(=O)/C(=C/c4cc(OC)c(OC)c(OC)c4)N=C3c3ccccc3)cc2c1` the GI50 was active: 0.556 µM.
With `CCc1nc2c(O)ccc(O)c2nc1C` the GI50 was inactive: 18.7 µM.
With `CCOC(=O)COc1cc(-c2ccccc2)nc2cc(F)ccc12` the GI50 was inactive: > 100 µM.
With `Brc1ccc2c(c1)C1=C(CO2)Cc2ccccc2O1` the GI50 was inactive: 18 µM.
With `CC(C)NCCNC(=O)c1ccccc1Nc1c(Cl)cccc1Cl` the GI50 was inactive: 10.5 µM.
In the case of `Cc1ccc2[nH]c3c(C)c4ccncc4c(C)c3c2c1`, the GI50 is reported as active: 0.59 µM.
`OCc1cn(Cc2ccccc2)c2ccccc12` was tested, and the GI50 was inactive: 24.3 µM.
With `CCOC(=O)c1c(-c2ccc(Br)cc2)ccn1C` the GI50 was inactive: > 10 µM.
`CN(C)CC[N+](C)(C)[BH2-]C(O)O` was tested, and the GI50 was inactive: > 100 µM.
In the case of `O=C1C=C(Nc2ccc(S(=O)(=O)Nc3nccs3)cc2)c2ccccc2C1=O`, the GI50 is reported as inactive: 44.9 µM.
With `CC(=O)OC1C(C)OC(OC2C[C@](O)(C(C)=O)Cc3c(O)c4c(c(O)c32)C(=O)c2ccccc2C4=O)C(F)C1OC(C)=O` (stereo partly specified) the GI50 was active: 0.0798 µM.
With `CCOC(=O)NC(Nc1ccc(F)cc1F)(C(F)(F)F)C(F)(F)F` the GI50 was inactive: > 100 µM.
In the case of `O=C1C(Cl)=C(OCCCl)C(=O)c2c(O)ccc(O)c21`, the GI50 is reported as inactive: 15.6 µM.
With `COC(=O)C(N)CCCC(N)C(=O)NC(C)C(=O)NC(CCC(=O)NCCCNc1ccc([N+](=O)[O-])c2[nH]c3ccccc3c(=O)c12)C(N)=O` (stereo unspecified) the GI50 was inactive: 8.2 µM.
In the case of `O=P(O)(CN1CCN(CP(=O)(O)c2ccccc2)CCN(CP(=O)(O)c2ccccc2)CC1)c1ccccc1`, the GI50 is reported as inactive: > 100 µM.
`COc1cc(C(=O)O)ccc1OS(=O)(=O)O` was tested, and the GI50 was inactive: > 100 µM.
For `CC1OC(OC2C[C@](O)(C(=O)CBr)Cc3c(O)c4c(c(O)c32)C(=O)c2ccccc2C4=O)C(F)C(O)C1O` (stereo partly specified), the GI50 was inactive: 39.5 µM.
In the case of `C[C@H](C(O)CC(=O)C(C)(C)O)[C@H]1CC[C@@]2(C)[C@@H]3CC[C@H]4C(C)(C)[C@@H](OC5OC(COC6OC(CO)C(O)C(O)C6O)C(O)C(O)C5O)CC[C@]4(C)C3=CC[C@]12C` (stereo partly specified), the GI50 is reported as inactive: > 100 µM.
`CCOC(=O)CC(C)C1(C=O)CCCCC1=O` (stereo unspecified) was tested, and the GI50 was inactive: > 100 µM.
With `O=C(Nc1cnc(O)nc1O)C(Cl)Cl` the GI50 was inactive: > 100 µM.
`OCC1c2ccccc2-n2nc(-c3ccccc3)c(O)c21` (stereo unspecified) was tested, and the GI50 was inactive: 61.4 µM.
For `COc1cc(O)c2c(c1)C(O)C(O)CC1OC1C(=O)/C=C/CC(C)OC2=O` (stereo unspecified), the GI50 was inactive: 15.6 µM.
`Cc1ccsc1/C=N/Nc1cc(C)c2ccccc2n1` was tested, and the GI50 was inactive: 18.1 µM.
With `COC(=O)c1cc2c(c(C(=O)OC)c1)CCC2` the GI50 was inactive: > 100 µM.
`CC(=O)OCCOCNC(=S)N/N=C/c1ccc2ccccc2n1` was tested, and the GI50 was inactive: 30.6 µM.
`CCCCN(CCCC)C(=O)C(=O)CC(=O)/C=C/c1ccccc1` was tested, and the GI50 was inactive: > 100 µM.
`CC(=O)Nc1ccc(-c2nnc(SCC(=O)Nc3ccccc3C)o2)cc1` was tested, and the GI50 was inactive: > 100 µM.
For `COc1ccc2c(c1)c1c(n2CCN2CCCCC2)-c2ccccc2CC1`, the GI50 was inactive: 20 µM.
`COc1cc(C(C)O)c[n+](Cc2ccccc2)c1` (stereo unspecified) was tested, and the GI50 was inactive: > 100 µM.
With `CSc1nc(=O)cnn1C` the GI50 was inactive: > 100 µM.
In the case of `CCCCCCNC(=O)c1cnc(Cl)cn1`, the GI50 is reported as inactive: 3.33 µM.
`Fc1ccc(C2NC(=S)NC3=C2CCOc2c3ccc3ccccc23)cc1` (stereo unspecified) was tested, and the GI50 was inactive: > 100 µM.
`CCOC(=O)C1=C(c2ccccc2)N(C)c2ccccc2S1` was tested, and the GI50 was inactive: 48.5 µM.
`C/C(CCN(C)C)=N/O` was tested, and the GI50 was inactive: 24.3 µM.
In the case of `O=[N+]([O-])c1cccc(C2=NOC3CCCC23)c1` (stereo unspecified), the GI50 is reported as inactive: > 100 µM.
In the case of `O=C1c2ccccc2-c2nnc(-c3ccc([N+](=O)[O-])cc3)cc21`, the GI50 is reported as inactive: > 10 µM.
In the case of `O=S(=O)(Nc1nc2ccccc2nc1Nc1ccc2ccccc2c1)c1ccccc1`, the GI50 is reported as inactive: 17.7 µM.
For `Nc1c(S(=O)(=O)O)cc(Nc2cccc(S(=O)(=O)/C=C/S(=O)(=O)O)c2)c2c1C(=O)c1ccccc1C2=O`, the GI50 was inactive: > 100 µM.
For `CCCc1nc(N)nc(C(=O)Nc2cccc(C(F)(F)F)c2)c1CC`, the GI50 was inactive: > 100 µM.
With `C/C(=N\Nc1nc2ccccc2[nH]1)c1ccc2ccccc2n1` the GI50 was inactive: 2.53 µM.
For `CCCC(=O)NC1CCc2cc(OC)c(OC)c(OC)c2-c2ccc(OC)c(=O)cc21` (stereo unspecified), the GI50 was active: 0.0112 µM.
`COc1ccc2c(c1)CN1C(=N2)CSC1c1cccc(Br)c1` (stereo unspecified) was tested, and the GI50 was inactive: 27.9 µM.
For `COP(=N[Si](C)(C)C)(OC)OC`, the GI50 was inactive: > 100 µM.
With `Cc1c2ccc3ccccc3c2c[n+]2ccccc12` the GI50 was inactive: 4.65 µM.
For `O=[N+]([O-])c1ccc(C2=Nn3c(nnc3-c3ccc(Cl)cc3)SC2)o1`, the GI50 was inactive: 14.8 µM.
In the case of `CC(C)(C)c1cc(C(C)(C)C)c(SS(=O)(=O)O)c(O)c1O`, the GI50 is reported as inactive: 33.6 µM.
With `Cc1ccccc1C(=O)NC(O)(C(F)(F)F)C(F)(F)F` the GI50 was inactive: > 100 µM.
With `COc1ccc(-c2cc(-c3ccc(Nc4ccnc5cc(C(F)(F)F)ccc45)cc3)[nH]c(=O)c2C#N)cc1` the GI50 was inactive: > 100 µM.
`CCCCCCCCCCCCCc1nnn[nH]1` was tested, and the GI50 was inactive: 17.7 µM.
For `Cc1nc(Nc2ccccc2)sc1C(=O)NNC(N)=O`, the GI50 was inactive: > 100 µM.
For `O=C(O)c1cccc(OCCOc2cccc(C(=O)O)c2[N+](=O)[O-])c1[N+](=O)[O-]`, the GI50 was inactive: > 100 µM.
With `N=c1c2sc3nc4ccccc4n3c2ncn1Cc1ccccc1` the GI50 was inactive: > 100 µM.
For `CC(=O)n1c2ccccc2c2nc3nc(Oc4ccc(C)cc4)c4ccccc4c3cc21`, the GI50 was inactive: > 100 µM.
`COc1cc(/C=C2\CCC(C)c3c2nc(N)c(C#N)c3-c2cc(OC)c(OC)c(OC)c2)cc(OC)c1OC` (stereo unspecified) was tested, and the GI50 was inactive: > 100 µM.
With `CC1=NN(C(=O)c2ccccc2)C(=O)C1/N=N/c1ccccc1C(=O)O` (stereo unspecified) the GI50 was inactive: 27.6 µM.
With `CCn1ncc2c(=O)n3ncn(-c4ccc(Br)cc4)c3nc21` the GI50 was inactive: > 100 µM.
With `N=C(N)c1ccc(/N=N\c2c(O)ccc3cc4c(/N=N\c5ccc(C(=N)N)cc5)c(O)ccc4cc23)cc1` the GI50 was inactive: 73.1 µM.
With `CC(C)(C)OC(=O)NNC(=O)C1Cc2ccccc2OC1=O` (stereo unspecified) the GI50 was inactive: > 100 µM.
For `c1cc(-c2ncc(-c3ccc4c(c3)CCCO4)o2)ccn1`, the GI50 was inactive: 34.8 µM.
`COC(=O)C(Cc1nc2ccc(Cl)cc2nc1O)/C(=N/NC(N)=O)C(=O)Nc1ccc(Cl)cc1` (stereo unspecified) was tested, and the GI50 was inactive: > 100 µM.
In the case of `Cc1cc(C)c2ccc(N3CCNCC3)nc2n1`, the GI50 is reported as inactive: 92 µM.
`COCCOCCOC1=CC(=O)c2c(O)ccc(O)c2C1=O` was tested, and the GI50 was inactive: 1.6 µM.
`C1CCCCC2(CCCCCCCCC3(CCC1)SCCS3)SCCS2` was tested, and the GI50 was inactive: > 100 µM.
With `NC(=O)NOCC1NC(=O)NC1=O` (stereo unspecified) the GI50 was inactive: > 100 µM.
`COC(=O)/C=C/C1C2C3(CCC(C)C12C)OCCS3` (stereo unspecified) was tested, and the GI50 was inactive: > 100 µM.
With `Clc1sc(Cl)c2c1[C@@H](Cl)C[C@@H]2Br` the GI50 was inactive: > 100 µM.
With `COc1c(Cl)ccc(Cl)c1C(=O)NNC(=O)c1c(Cl)c(Cl)c(Cl)c(Cl)c1-c1nc2cc(C(=O)c3ccccc3)ccc2[nH]1` the GI50 was inactive: > 100 µM.
In the case of `C=C1C(OC2O[C@@H]3O[C@@]4(C)CC[C@H]5[C@H](C)CC[C@@H](C2=C)[C@@]35O4)O[C@@H]2O[C@@]3(C)CC[C@H]4[C@H](C)CC[C@@H]1[C@@]24O3` (stereo partly specified), the GI50 is reported as inactive: > 50 µM.
`COc1ccccc1-c1cc(=O)c2cc(C)c(C)c(C(=O)O)c2o1` was tested, and the GI50 was inactive: > 100 µM.
For `C#CCNCC(=O)O`, the GI50 was inactive: > 100 µM.
With `COC(=O)C(C(=O)C(=O)Nc1cccc(O)c1)c1nc2ccc(Cl)cc2nc1O` (stereo unspecified) the GI50 was inactive: > 100 µM.

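Method: 48-hour compound exposure of cells in 96-well plates, five concentrations, linear interpolation of endpoints. GI50 is the concentration that inhibits growth by half.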 Activity calls are given as the source filed them. No stated cut-off is given here; in the data, active = GI50 up to about 1.1 µM and inactive = higher.
